Test results reported in patent publication US20250059201A1, “CAMPTOTHECIN COMPOUND AND CONJUGATE THEREOF” (priority 2021, published 2025).
Where “and” joins values, the source holds several entries; their conditions need not be identical. Equal values may be shown once.

Assays:
BxPC-3 cells = assay: Apoptosis-inducing effect; assay type: cell-based
Protocol: BxPC-3 cells (purchased from: ATCC) were inoculated into 6-well plates, and then treated with Trop2-ADC-14 (0.020, 0.196, and 1.963 nM), DS-1062 (0.020, 0.196, and 1.963 nM), the mAb in Trop2-ADC-14 (i.e., antibody h23-12) (6.728 nM) and Compound 3 (0.1, 1, and 10 nM) for 120 hours. Next, the cells were harvested, and Annexin-V-FITC and PI were added thereto, and the cells were stained at room temperature for 15 minutes in dark, and finally were re-suspended in the added 300 μl of 1× binding buffer. Apoptosis was detected with a flow cytometer (BD AccuriTMC6 Plus flow cytometer), for which 1×10^4 cells were gated for each group. Experimental data was analyzed using software BD CSampler™ Plus C6.

[1] = test system: BxPC-3 cells positive for Trop-2 and HT-29 cells negative for Trop-2; assay: Bystander effect of ADCs targeting Trop-2, co-culture; assay type: cell-based; conditions: 144 hours
Protocol: (§1) BxPC-3 cells (purchased from ATCC) positive for Trop-2 and HT-29 cells (purchased from ATCC) negative for Trop-2 were inoculated together, or the Trop-2-negative HT-29 cells were inoculated separately, in 6-well plates. […] Next, the cells were incubated with Dylight 488 NHS Ester labeled Trop2-ADC-14 on ice for 1 hour in dark, and then centrifuged to remove supernatant, re-suspended in PBS, washed with PBS three times, and cell proportions of BxPC-3 cells and HT-29 cells were detected and calculated using a flow cytometer BD ACCURI C6 PLUS, and the numbers of the two kinds of cells were calculated.

[2] = test system: Trop-2-negative HT-29 cells; assay: Binding activity to cells negative for Trop-2
Protocol: Different concentrations (1, 3, 10, 30, 100, 300, 1000, 3000, 10000, 30000, and 100000 ng/mL) of fluorescently labeled Trop2-ADC-14 and the mAb in Trop2-ADC-14 (i.e., antibody h23-12) were incubated with BxPC-3 cells (purchased from: ATCC) on ice for 1 hour in dark, and then the cells were centrifuged to remove supernatant, washed with PBS, re-suspended, and the fluorescence intensity of the drugs bound to the cells was measured with a flow cytometer (BD ACCURI C6 PLUS). The experiment was repeated once.

[3] = test system: BxPC-3 cells positive for Trop-2; assay: Internalization function (flow cytometry of fluorescently labeled drug); assay type: cell-based
Protocol: BxPC-3 cells (purchased from: ATCC) were inoculated into 6-well plates, and fluorescently labeled Trop2-ADC-14 and the mAb in Trop2-ADC-14 (i.e., antibody h23-12) each at 1 g/mL were added thereto respectively. The cells were incubated at 37° C. for 3, 6, 12, 18, 24, and 48 hours respectively, and then were digested with trypsin. The Trop2-ADC-14 and the mAb h23-12 not internalized were washed away, and fluorescence intensity was measured with a flow cytometer (BD ACCURI C6 PLUS). The experiment was repeated once.

[4] = test system: Calu-3 human lung cancer cells; assay: Therapeutic effect on subcutaneous tumor in nude mice (lung cancer model); assay type: in vivo; conditions: for Mean tumor volume (mm^3) D 0: D 0 (baseline)
Protocol: Calu-3 lung cancer cells purchased from the cell bank in Chinese academy of sciences were used. Calu-3 cells were cultured in 10-cm culture dishes for adherent culture, in RPMI 1640 containing 10% Fetal Bovine Serum with penicillin and streptomycin supplemented, at 37° C. in an incubator containing 5% CO2. The cells were passaged 2-3 times in one week, and when in exponential growth phase, they were digested using trypsin, harvested, counted and inoculated.
A comparison study was performed between groups of different doses of antibody-drug conjugate Trop2-ADC-14 which was taken as an example (Table 15). Mice were administered with the ADC via intravenous injection (IV), at an administration volume of 10 mL/kg; the mice in the group of vehicle were administered with the same volume of vehicle (saline). Tumor volumes were measured 2 times per week, and the mice were weighed and the data were recorded.
When the experiment was completed, the experiment achieved the end point, or the tumor volume achieved 2000 mm^3, the animals were sacrificed under CO2 anesthesia and the tumors were dissected and photographed. Results are shown in Table 15 and FIG. 4, in which the growth changes in tumor volume of mice in each group are shown.

[5] = test system: BxPC3 cell line having high expression of Trop-2; assay: Cell killing effect in vitro of ADCs targeting Trop-2 (MTS); assay type: cell-based, human; conditions: BXPC3: 5000 cells/well, 120 h
Protocol: BxPC3 cell line having high expression of Trop-2 (purchased from: ATCC) was taken from liquid nitrogen, and recovered. Then the density of the cells was adjusted to 5×10^4/mL with complete medium, and the cells were added to cell culture plates (96-well plates were used, and sterile PBS or sterile purified water was added at 200 µL/well into rows A and H, and columns 1 and 12 of the plates) at 100 μL/well, and cultured overnight.
Samples of ADCs targeting Trop-2 prepared above were diluted respectively to 50 µg/ml using complete medium, followed by 4-fold gradient dilution, and 9 concentrations and concentration zero were obtained. The diluted samples were added into the cell culture plates, and three duplicate wells were set for each of the diluted samples; and a negative control well (cell+medium) and a blank control well (no cells, medium only) were set in column 11 of the plates. Next, the plates were placed in a cell incubator and the cells were incubated for 120 h. After the incubation, MTS was added at 40 μL/well to the plates which were then placed back into the 37° C. incubator and allowed for reacting for 2-4 h. Then the cell plates were taken out, and OD values at 490 nm were read on a microplate reader.

[6] = test system: Trop-2-negative HT-29 cells; assay: Bystander effect study, Trop-2-negative cells separately cultured; assay type: cell-based; conditions: HT-29 separately cultured, 144 hours
Protocol: as §1

B1: Trop2-ADC-14 (conjugate)
heavy: QVQLVQSGAEVKKPGASVKVSCKASGYTFTSYWMHWVRQAPGQGLEWMGEITPSDNYGSYNQKFKGRVTITRDTSTSTAYMELSSLRSEDTAVYYCARGHGNYVSFDYWGQGTLVTVSSASTKGPSVFPLAPSSKSTSGGTAALGCLVKDYFPEPVTVSWNSGALTSGVHTFPAVLQSSGLYSLSSVVTVPSSSLGTQTYICNVNHKPSNTKVDKRV[not shown - human IgG1 Fc]
light: DIQMTQSPSSLSASVGDRVTITCRASQDISNYLNWYQQKPGKAPKLLIYYTSRLESGVPSRFSGSGSGTDFTLTISSLQPEDFATYFCQQGYTLPPYTFGQGTKLEIKRTVAAPSVFIFPPSDEQLKSGTASVVCLLNNFYPREAKVQWKVDNALQSGNSQESVTEQDSKDSTYSLSSTLTLSKADYEKHKVYACEVTHQGLSSPVTKSFNRGEC
- apoptosis-inducing effect (BxPC-3 cells; BxPC-3, 0.196 nM, 120 hours): obviously induced the degradation of protein pro-PARP
- apoptosis-inducing effect (BxPC-3 cells; BxPC-3, 120 hours, over the tested concentrations): concentration dependent
- bystander effect ([1]; BxPC-3 and HT-29 inoculated together): strong bystander effect
- bystander killing effect compared with DS-1062a ([1]; Trop2-ADC-14 at 30 ng/mL): comparable to that of reference drug DS-1062a at 300 ng/mL
- binding to the Trop-2-negative HT-29 cells [2]: no obvious binding
- internalization ([3]; BxPC-3, 37° C., 3 to 48 hours, time-dependent): internalized into the cells
- internalization compared with antibody h23-12 ([3]; BxPC-3, 24 hour): internalized more at 24 hour than antibody h23-12
- Mean tumor volume (mm^3) D 0 ([4]; 1 mg/kg IV): 119.6 mm^3
- Mean tumor volume (mm^3) D 21 ([4]; 1 mg/kg IV): 268.6 mm^3
- TGI (%) D 21 ([4]; 1 mg/kg IV): 88%
- Mean tumor volume (mm^3) D 0 ([4]; 3 mg/kg IV): 121.1 mm^3
- Mean tumor volume (mm^3) D 21 ([4]; 3 mg/kg IV): 105.4 mm^3
- TGI (%) D 21 ([4]; 3 mg/kg IV): 113%
- Mean tumor volume (mm^3) D 0 ([4]; 10 mg/kg IV): 121.6 mm^3
- Mean tumor volume (mm^3) D 21 ([4]; 10 mg/kg IV): 96.7 mm^3
- TGI (%) D 21 ([4]; 10 mg/kg IV): 120%
- EC50 [5]: 0.06711 µg/mL and 0.07187 µg/mL and 0.0734 µg/mL and 0.0702 µg/mL
- Maximum cell killing effect (%) [5]: 82.2% and 84.6% and 85.2% and 83.1%
- effect on proliferation of the Trop-2-negative HT-29 cells separately cultured [6]: no obvious effect
